The campaign covered roughly 39,000 compounds. About 220 (0.56%) showed activity. Some of the results follow.
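Further: static incubation at 37 °C against the wild-type strain, values averaged over two biological replicates.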

The test system of the assay is Escherichia coli K-12 BW25113. Nature of the assay: relative growth (OD600 normalised to plate interquartile mean) (fraction); higher = less growth inhibition, active = 0.2 or less. Conditions: 50 µM; LB; incubation time: overnight (16-24 h).
`C[C@@H]1CN([C@@H](C)CO)C(=O)c2cc(NC(=O)Nc3ccc(C(F)(F)F)cc3)ccc2O[C@@H]1CN(C)Cc1ccc(Oc2ccccc2)cc1`: the relative growth was inactive: 1.01.
Turning to `Cc1cnc(CNC(=O)[C@H]2C[C@H]3[C@@H](CCN3S(C)(=O)=O)O2)cn1`, the relative growth is inactive: 1.
Then `C[C@@H]1CN([C@@H](C)CO)C(=O)c2cc(NS(=O)(=O)c3ccc(Cl)cc3)ccc2O[C@@H](C)CCCCO[C@@H]1CN(C)S(=O)(=O)c1ccc(Cl)cc1`, with inactive: 1.02.
With `O=C1C(CCC(O)c2ccc(F)cc2)C(c2ccc(O)cc2)N1c1ccc(F)cc1` (centres undefined) the figure was inactive: 0.88.
Turning to `NC(Cc1c[nH]c2ccccc12)C(=O)O` (centres undefined), the relative growth is inactive: 1.06.
As to `CNC[C@H]1Oc2cc(C#CCN(C)C)ccc2S(=O)(=O)N([C@H](C)CO)C[C@@H]1C`, the relative growth is inactive: 1.02.
Turning to `CN1C(=O)N(C)[C@H]2NC(=O)N[C@@H]21`, the relative growth was inactive: 0.993.
With `C[C@H]1CN([C@@H](C)CO)S(=O)(=O)c2ccc(C#CC3CCCC3)cc2O[C@@H]1CN(C)Cc1cncnc1` the figure was inactive: 1.
Then `COC(=O)c1c(CC[C@@H](CO)NC(=O)N[C@H](Cn2cc(-c3cncn3C)nn2)C(C)C)oc(C(C)=O)c1C(=O)OC`, with inactive: 1; and `O=C1c2ccccc2[C@@]2(Cc3ccccc3N(CC(F)(F)F)C2=O)[C@H](c2ccc(CO)cc2)N1Cc1ccccc1`, with inactive: 1.01.
Then `C[C@H](CO)N1C[C@H](C)[C@H](CN(C)C(=O)C2CCCCC2)OCCCC[C@H](C)Oc2ccc(NS(=O)(=O)c3ccc(F)cc3)cc2C1=O`, with inactive: 0.995; and `CCC(=O)N1C[C@]2(C1)CN([C@@H](CO)c1[nH]c3cc(ccc3c12)OC)C(=O)CN1CCOCC1`, with inactive: 1.02.
As to `C[C@@H]1CCCCO[C@@H](CN(C)Cc2ccc3c(c2)OCO3)[C@@H](C)CN([C@H](C)CO)C(=O)c2cc(NC(=O)C3CCCCC3)ccc2O1`, the relative growth was inactive: 1.01.
Then `O=C(C[C@@H]1CC[C@H]2[C@@H](COC[C@@H](O)CN2Cc2cc(F)ccc2F)O1)N[C@H]1CCN(Cc2ccccc2)C1`, with inactive: 0.988.
With `C[C@H](CO)N1C[C@H](C)[C@H](CN(C)Cc2ccc(Cl)c(Cl)c2)Oc2ccc(NC(=O)Nc3ccc(F)cc3)cc2CC1=O` the figure was inactive: 0.997; with `CCCc1cc(=O)n2ncnc2[nH]1`, inactive: 0.904; with `Cc1noc(C)c1NC(=O)N(C)C[C@H]1OCCCC[C@@H](C)Oc2ccc(NC(=O)CCC(F)(F)F)cc2C(=O)N([C@@H](C)CO)C[C@@H]1C`, inactive: 1.03.
Then `C[C@@H]1CCCCO[C@H](CN(C)S(=O)(=O)c2ccc(Cl)cc2)[C@@H](C)CN([C@@H](C)CO)C(=O)c2cc(NC(=O)c3ccccc3)ccc2O1`, with inactive: 1.03; and `NCc1cccc(O)c1`, with inactive: 0.98; and `COc1ccc2c3c(n(c2c1)C)[C@@H](CO)N(CC1CCCCC1)C[C@]13CCN(CC1)Cc1nccs1`, with inactive: 0.996.
As for `Cn1c([C@H]2C=C(C(=O)N3CCOCCOCCOCCOCC3)O[C@@H](OCCCCO)C2)cc(=O)n1-c1ccccc1`, the relative growth is inactive: 0.944.
Then `NS(=O)(=O)OC[C@H]1C[C@@H](Nc2ccnc3cc(-c4cccc(SC(F)(F)F)c4)nn23)[C@H](O)[C@@H]1O`, with inactive: 0.937.
With `O=C1C[C@]2(c3ccc([N+](=O)[O-])cc3)C(=O)N(Cc3ccccc3)c3cc(CO)ccc3[C@H]2N1C1CCCCC1` the figure was inactive: 1.01.
For the molecule `C[C@@H]1CCCCO[C@@H](CN(C)Cc2ccccc2)[C@@H](C)CN([C@H](C)CO)C(=O)c2cc(NC(=O)Nc3ccccc3)ccc2O1`, the relative growth was inactive: 0.996.
Then `Cc1noc(C)c1S(=O)(=O)N(C)C[C@H]1OCCCC[C@@H](C)Oc2ccc(NC(=O)Nc3ccc(F)cc3)cc2C(=O)N([C@@H](C)CO)C[C@@H]1C`, with inactive: 1.02; and `Cc1noc(C)c1S(=O)(=O)N(C)C[C@@H]1OCCCC[C@@H](C)Oc2ccc(NC(=O)Nc3ccc(F)cc3)cc2C(=O)N([C@H](C)CO)C[C@@H]1C`, with inactive: 1.03.
For the molecule `C[C@@H]1CN([C@H](C)CO)C(=O)Cc2cc(NC(=O)Nc3cccc4ccccc34)ccc2O[C@H]1CN(C)Cc1ccc(C(=O)Nc2ccccc2N)cc1`, the relative growth is inactive: 1.01.
With `O=C1OCCC/C=C\[C@H]2O[C@@]34C=CCN(Cn5nnc6ccccc65)C(=O)[C@H]3N(CCO)C(=O)[C@@H]4[C@@H]12` the figure was inactive: 0.997.
Then `O=C(O)CN(CCN(CC(=O)O)CC(=O)O)CC(=O)O.[Na+].[Na+]`, with inactive: 1.
Consider `C[C@H]1CN([C@@H](C)CO)C(=O)c2cc(NC(=O)C3CCCCC3)ccc2O[C@@H]1CN(C)Cc1ccc(C(F)(F)F)cc1`, for which the relative growth was inactive: 1.02.
With `C[C@H](CO)N1C[C@H](C)[C@H](CN(C)CC2CCCCC2)Oc2c(NC(=O)CCCCCC(=O)Nc3ccccc3N)cccc2C1=O` the figure was inactive: 1.02; with `CCO[C@H]1[C@H]2CC[C@@H]1N(C(=O)CS(C)(=O)=O)CCO2`, inactive: 0.993; with `C[C@@H]1CN([C@@H](C)CO)C(=O)Cc2cc(NC(=O)C3CCCCC3)ccc2O[C@@H]1CN(C)Cc1ccc(Cl)c(Cl)c1`, inactive: 1.
`CC(C)(C)OC(=O)C[C@H]1CC=CC[C@@H](CC(=O)N[C@H](CO)Cc2ccccc2)C(=O)N2CCC[C@@H]2COC1=O`: the relative growth is inactive: 0.975.
Then `COc1ccc(NC(=O)N(C)C[C@@H]2Oc3ccc(NC(=O)CCN4CCOCC4)cc3CC(=O)N([C@H](C)CO)C[C@@H]2C)cc1`, with inactive: 1.01.
As to `CC(C)=CCCC(C)=CCO`, the relative growth was inactive: 0.885.
`CCS(=O)(=O)Nc1ccc2c(c1)C(=O)N(C)[C@H]1CC[C@@H](CC(=O)N3CCN(C)CC3)O[C@@H]1CO2`: the relative growth was inactive: 0.903.
With `C[C@@H]1CN([C@H](C)CO)C(=O)c2c(c3ccccc3n2C)-c2ccccc2CO[C@@H]1CN(C)C(=O)Nc1cccc(F)c1` the figure was inactive: 1.03.
With `O=C(CN1CCNCC1)NC1CCCCC1` the figure was inactive: 1; with `CC(C)NC(=O)N(C)C[C@H]1Oc2cc(C#Cc3cccc(F)c3)ccc2S(=O)(=O)N([C@@H](C)CO)C[C@H]1C`, inactive: 0.989.
With `C[C@H](CO)N1C[C@H](C)[C@@H](CN(C)C(=O)Nc2cccc3ccccc23)Oc2ccc(NC(=O)Nc3ccc(C(F)(F)F)cc3)cc2CC1=O` the figure was inactive: 1.04; with `C[C@@H]1CN([C@H](C)CO)C(=O)c2cccc(NC(=O)C3CCOCC3)c2O[C@H]1CN(C)S(=O)(=O)c1ccc(Cl)cc1`, inactive: 0.999; with `CCC(=O)N1C[C@]2(C1)CN([C@H](CO)c1c2c2ccc(cc2n1C)OC)C(=O)CN1CCOCC1`, inactive: 1.02.
As for `N=C(N)SCc1ccc(B(O)O)cc1`, the relative growth was inactive: 0.993.
With `C=C1C(=O)OC2CC3(C)CCCC(C)C3=CC12` (centres undefined) the figure was inactive: 1.07; with `C[C@@H]1CN([C@H](C)CO)C(=O)Cc2cc(NC(=O)c3ccncc3)ccc2O[C@@H]1CN(C)Cc1ccc(Oc2ccccc2)cc1`, inactive: 0.964.
With `CC(=O)N[C@@H](C=O)[C@@H](O)[C@H](O)[C@H](O)CO`, the relative growth is inactive: 1.02.
Turning to `COC(=O)[C@@H](C)S(=O)(=O)NC(=O)c1cnc2ccccn2c1=O`, the relative growth was inactive: 0.996.
With `COc1ccc2c3c([nH]c2c1)[C@@H](CO)N(C[C@]13CCN(CC1)C(=O)c1ccccc1F)C(=O)Nc1ccccc1F` the figure was inactive: 1.01; with `C[C@@H]1CN([C@H](C)CO)C(=O)c2cccc(NC(=O)Nc3ccccc3)c2O[C@@H]1CN(C)Cc1ccc(Oc2ccccc2)cc1`, inactive: 0.965.
With `CCOC(=O)C(=O)NCc1nnnn1-c1ccccc1` the figure was inactive: 1.01; with `O=C(C[C@H]1C=C[C@@H](NC(=O)c2cccc(F)c2)[C@@H](CO)O1)NCCN1CCCC1`, inactive: 0.99; with `COc1ccc(S(=O)(=O)Nc2cccc3c2O[C@H](CN(C)S(=O)(=O)c2ccc(F)cc2)[C@H](C)CN([C@H](C)CO)C3=O)cc1`, inactive: 0.974.
With `C[C@H](CO)N1C[C@H](C)[C@H](CN(C)C(=O)C2CCCCC2)OCCCC[C@H](C)Oc2ccc(NS(=O)(=O)c3ccccc3)cc2C1=O` the figure was inactive: 0.999; with `C[C@@H]1CCCCO[C@H](CN(C)C(=O)Nc2ccc3c(c2)OCO3)[C@H](C)CN([C@H](C)CO)C(=O)c2cc(NS(=O)(=O)c3ccccc3)ccc2O1`, inactive: 0.973.
For the molecule `CN(C)CCCCCCNC(=O)[C@@H]1C[C@@H]2C(=O)NCC(=O)N2[C@@H]1c1cccc(OCCO)c1`, the relative growth was inactive: 0.996.
On to `Cc1ccc(S(=O)(=O)N(C)C[C@@H]2Oc3ccc(NS(=O)(=O)c4cccs4)cc3CC(=O)N([C@H](C)CO)C[C@@H]2C)cc1`, for which the relative growth was inactive: 1.
Then `C=CC[C@H](CC(=O)NCCO)C(=O)N[C@H](COC(=O)[C@@H](CC=C)CC(=O)OC(C)(C)C)Cc1ccccc1`, with inactive: 0.997.
With `C[C@@H]1CN([C@@H](C)CO)C(=O)Cc2cc(NC(=O)Cn3cnnn3)ccc2O[C@H]1CN(C)C(=O)Nc1ccc(F)cc1` the figure was inactive: 1.01.
As for `CN(C)CC(=O)N[C@H]1C=C[C@H](CC(=O)O)O[C@H]1CO`, the relative growth is inactive: 0.985.
With `O=C(C[C@H]1C[C@H]2c3cc(NS(=O)(=O)c4ccc(F)cc4)ccc3O[C@H]2[C@@H](CO)O1)NCc1cccnc1` the figure was inactive: 1; with `C[C@@H]1CCCCO[C@@H](CN(C)C(=O)C2CCCCC2)[C@H](C)CN([C@@H](C)CO)C(=O)c2cc(NS(=O)(=O)c3ccc(F)cc3)ccc2O1`, inactive: 1.01.
With `COc1ccc(-c2cnc3c(c2)C(=O)N([C@@H](C)CO)C[C@@H](C)[C@H](CN(C)C(=O)C2CCOCC2)O3)cc1` the figure was inactive: 0.992; with `C[C@@H]1CCCCO[C@@H](CN(C)CC2CCCCC2)[C@@H](C)CN([C@H](C)CO)C(=O)c2cc(NC(=O)C3CCCCC3)ccc2O1`, inactive: 0.957.

Values taken from the supplement of paper PMC9446081.
